Data from patent US8586505B2 (SDS Biotech K. K., priority 2009, dated 2013).

Each compound was assayed on Tetranychus urticae female adults (assay: whole plant or invertebrate). Details: 48 h, read-out: Determination (mortality rate).
Procedure: A kidney bean leaf section having a diameter of 3 cm was placed on a wet sponge in a plastic cup. Thereafter, ten female adults of Tetranychus urticae were released into the plastic cup. 0.4 ml each of an agent solution prepared by diluting a 10% wettable powder of each compound shown in Table 1 to a concentration of 250 ppm was sprayed thereto. Two days later, the number of deaths was counted, and the mortality rate was then calculated.

| Structure (SMILES) | mortality at 250 ppm |
| --- | --- |
| CC(CC#Cc1ccc(Cl)cc1)Nc1ncnc2sccc12 (stereo not drawn) [compound 232] | 80 to 95% |
| CC(CC#Cc1ccc(S(F)(F)(F)(F)F)cc1)Nc1ncnc2sccc12 (stereo not drawn) [compound 238] | 60 to 80% |
| CC(CC#Cc1ccc(F)cc1C(F)(F)F)Nc1ncnc2sccc12 (stereo not drawn) [compound 249] | > 95% |
| CC(CC#Cc1ccc(Cl)cc1C(F)(F)F)Nc1ncnc2sccc12 (stereo not drawn) [compound 258] | 80 to 95% |
| CC(CC#Cc1ncccc1C(F)(F)F)Nc1ncnc2sccc12 (stereo not drawn) [compound 264] | 60 to 80% |
| CC(CC#Cc1ccc(F)cc1)Nc1ncnc2ccccc12 (stereo not drawn) [compound 271] | > 95% |
| CC(CC#Cc1ccc(Cl)cc1)Nc1ncnc2ccccc12 (stereo not drawn) [compound 273] | > 95% |
| CC(CC#Cc1ccc(S(F)(F)(F)(F)F)cc1)Nc1ncnc2ccccc12 (stereo not drawn) [compound 277] | > 95% |
| COCc1ccccc1C#CCC(C)Nc1ncnc2ccccc12 (stereo not drawn) [compound 278] | > 95% |
| CC(CC#Cc1ccc(C(F)(F)F)cc1Cl)Nc1ncnc2ccccc12 (stereo not drawn) [compound 282] | > 95% |
| CC(CC#Cc1ccc(Cl)cc1C(F)(F)F)Nc1ncnc2ccccc12 (stereo not drawn) [compound 285] | > 95% |
| CC(CC#Cc1ccc(F)cc1C(F)(F)F)Nc1ncnc2ccccc12 (stereo not drawn) [compound 286] | > 95% |
| CC(CC#Cc1ccc(C(F)(F)F)cc1F)Nc1ncnc2ccccc12 (stereo not drawn) [compound 288] | > 95% |
| CC(CC#Cc1ccc(C(C)C)cc1C(F)(F)F)Nc1ncnc2ccccc12 (stereo not drawn) [compound 289] | > 95% |
| CC(CC#Cc1ccccc1S(C)(=O)=O)Nc1ncnc2ccccc12 (stereo not drawn) [compound 290] | > 95% |
| C=CC(CC#Cc1ccccc1)Nc1ncnc2ccccc12 (stereo not drawn) [compound 296] | > 95% |
| C=CC(CC#Cc1ccc(F)cc1)Nc1ncnc2ccccc12 (stereo not drawn) [compound 297] | > 95% |
| COCc1ccccc1C#CCCNc1ncnc2ccc([N+](=O)[O-])cc12 [compound 331] | > 95% |
| COCc1ccccc1C#CCCNc1ncnc2ccc(-c3cccnc3)cc12 [compound 337] | > 95% |
| CC(CC#Cc1ccc(Cl)cc1C(F)(F)F)Nc1ncnc2cc(F)ccc12 (stereo not drawn) [compound 344] | > 95% |
| CC(CC#Cc1ccc(Cl)cc1C(F)(F)F)Nc1ncnc2ccc(F)cc12 (stereo not drawn) [compound 345] | > 95% |
| CC(CC#Cc1ccc(F)cc1C(F)(F)F)Nc1ncnc2cc(F)ccc12 (stereo not drawn) [compound 347] | > 95% |
| CC(CC#Cc1ccc(Cl)cc1C(F)(F)F)Nc1ncnc2c(F)cccc12 (stereo not drawn) [compound 348] | 80 to 95% |
| COc1cccc2c(NC(C)CC#Cc3ccc(Cl)cc3C(F)(F)F)ncnc12 (stereo not drawn) [compound 352] | > 95% |
| COc1cccc2c(NC(C)CC#Cc3ccc(F)cc3C(F)(F)F)ncnc12 (stereo not drawn) [compound 353] | > 95% |
| Fc1cc2ncnc(NCCC#Cc3ccc(Cl)cc3C(F)(F)F)c2cc1F [compound 355] | > 95% |
| Cc1ncnc(NCCC#Cc2ccc(Cl)cc2C(F)(F)F)c1Cl [compound 360] | 60 to 80% |
| CC(CC#Cc1ccc(Cl)cc1C(F)(F)F)Nc1ncnc(C(C)F)c1Cl (stereo not drawn) [compound 382] | > 95% |
| CC(CC#Cc1ccc(Cl)cc1C(F)(F)F)Nc1ncnc2ncccc12 (stereo not drawn) [compound 384] | > 95% |
| Cc1ncnc(NC(C)CC#Cc2ccc(Cl)cc2C(F)(F)F)c1Br (stereo not drawn) [compound 387] | > 95% |

Each compound was assayed on Aphis gossypii (assay: whole plant or invertebrate). Details: in Cucumis sativus, 48 h, read-out: Determination (mortality rate).

| Structure (SMILES) | mortality at 250 ppm |
| --- | --- |
| CC(CC#Cc1ccc(Cl)cc1)Nc1ncnc2sccc12 (stereo not drawn) [compound 232] | > 95% |
| CC(CC#Cc1ccc(S(F)(F)(F)(F)F)cc1)Nc1ncnc2sccc12 (stereo not drawn) [compound 238] | 80 to 95% |
| CC(CC#Cc1ccc(F)cc1C(F)(F)F)Nc1ncnc2sccc12 (stereo not drawn) [compound 249] | > 95% |
| CC(CC#Cc1ccc(Cl)cc1C(F)(F)F)Nc1ncnc2sccc12 (stereo not drawn) [compound 258] | > 95% |
| CC(CC#Cc1ncccc1C(F)(F)F)Nc1ncnc2sccc12 (stereo not drawn) [compound 264] | 60 to 80% |
| CC(CC#Cc1ccc(F)cc1)Nc1ncnc2ccccc12 (stereo not drawn) [compound 271] | > 95% |
| CC(CC#Cc1ccc(Cl)cc1)Nc1ncnc2ccccc12 (stereo not drawn) [compound 273] | > 95% |
| CC(CC#Cc1ccc(S(F)(F)(F)(F)F)cc1)Nc1ncnc2ccccc12 (stereo not drawn) [compound 277] | > 95% |
| COCc1ccccc1C#CCC(C)Nc1ncnc2ccccc12 (stereo not drawn) [compound 278] | > 95% |
| CC(CC#Cc1ccc(C(F)(F)F)cc1Cl)Nc1ncnc2ccccc12 (stereo not drawn) [compound 282] | > 95% |
| CC(CC#Cc1ccc(Cl)cc1C(F)(F)F)Nc1ncnc2ccccc12 (stereo not drawn) [compound 285] | > 95% |
| CC(CC#Cc1ccc(F)cc1C(F)(F)F)Nc1ncnc2ccccc12 (stereo not drawn) [compound 286] | > 95% |
| CC(CC#Cc1ccc(C(F)(F)F)cc1F)Nc1ncnc2ccccc12 (stereo not drawn) [compound 288] | > 95% |
| CC(CC#Cc1ccc(C(C)C)cc1C(F)(F)F)Nc1ncnc2ccccc12 (stereo not drawn) [compound 289] | > 95% |
| CC(CC#Cc1ccccc1S(C)(=O)=O)Nc1ncnc2ccccc12 (stereo not drawn) [compound 290] | > 95% |
| C=CC(CC#Cc1ccccc1)Nc1ncnc2ccccc12 (stereo not drawn) [compound 296] | > 95% |
| C=CC(CC#Cc1ccc(F)cc1)Nc1ncnc2ccccc12 (stereo not drawn) [compound 297] | > 95% |
| COCc1ccccc1C#CCCNc1ncnc2ccc([N+](=O)[O-])cc12 [compound 331] | > 95% |
| COCc1ccccc1C#CCCNc1ncnc2ccc(-c3cccnc3)cc12 [compound 337] | > 95% |
| CC(CC#Cc1ccc(Cl)cc1C(F)(F)F)Nc1ncnc2cc(F)ccc12 (stereo not drawn) [compound 344] | > 95% |
| CC(CC#Cc1ccc(Cl)cc1C(F)(F)F)Nc1ncnc2ccc(F)cc12 (stereo not drawn) [compound 345] | > 95% |
| CC(CC#Cc1ccc(F)cc1C(F)(F)F)Nc1ncnc2cc(F)ccc12 (stereo not drawn) [compound 347] | > 95% |
| CC(CC#Cc1ccc(Cl)cc1C(F)(F)F)Nc1ncnc2c(F)cccc12 (stereo not drawn) [compound 348] | > 95% |
| COc1cccc2c(NC(C)CC#Cc3ccc(Cl)cc3C(F)(F)F)ncnc12 (stereo not drawn) [compound 352] | > 95% |
| COc1cccc2c(NC(C)CC#Cc3ccc(F)cc3C(F)(F)F)ncnc12 (stereo not drawn) [compound 353] | > 95% |
| Fc1cc2ncnc(NCCC#Cc3ccc(Cl)cc3C(F)(F)F)c2cc1F [compound 355] | > 95% |
| Cc1ncnc(NCCC#Cc2ccc(Cl)cc2C(F)(F)F)c1Cl [compound 360] | > 95% |
| CC(CC#Cc1ccc(Cl)cc1C(F)(F)F)Nc1ncnc(C(C)F)c1Cl (stereo not drawn) [compound 382] | > 95% |
| CC(CC#Cc1ccc(Cl)cc1C(F)(F)F)Nc1ncnc2ncccc12 (stereo not drawn) [compound 384] | > 95% |
| Cc1ncnc(NC(C)CC#Cc2ccc(Cl)cc2C(F)(F)F)c1Br (stereo not drawn) [compound 387] | > 95% |

These compounds were tested on Spodptera litura (assay: whole plant or invertebrate). Details: Brassica rapa, 48 h, read-out: Determination (mortality rate).
Procedure: A Chinese cabbage leaf section having a diameter of 3 cm was immersed in an agent solution prepared by diluting a 10% wettable powder of each compound shown in Table 1 to a concentration of 500 ppm, and it was then subjected to air drying. Thereafter, the Chinese cabbage leaf was placed in a plastic petri dish, and 10 third-instar larvae of Spodptera litura were released therein. Two days after the treatment, the number of deaths was counted, and the mortality rate was then calculated.

| Structure (SMILES) | mortality at 500 ppm |
| --- | --- |
| CC(CC#Cc1ccc(Cl)cc1)Nc1ncnc2sccc12 (stereo not drawn) [compound 232] | 60 to 80% |
| CC(CC#Cc1ccc(S(F)(F)(F)(F)F)cc1)Nc1ncnc2sccc12 (stereo not drawn) [compound 238] | > 95% |
| CC(CC#Cc1ccc(F)cc1C(F)(F)F)Nc1ncnc2sccc12 (stereo not drawn) [compound 249] | > 95% |
| CC(CC#Cc1ccc(Cl)cc1C(F)(F)F)Nc1ncnc2sccc12 (stereo not drawn) [compound 258] | > 95% |
| CC(CC#Cc1ncccc1C(F)(F)F)Nc1ncnc2sccc12 (stereo not drawn) [compound 264] | 60 to 80% |
| CC(CC#Cc1ccc(F)cc1)Nc1ncnc2ccccc12 (stereo not drawn) [compound 271] | 60 to 80% |
| CC(CC#Cc1ccc(Cl)cc1)Nc1ncnc2ccccc12 (stereo not drawn) [compound 273] | 60 to 80% |
| CC(CC#Cc1ccc(S(F)(F)(F)(F)F)cc1)Nc1ncnc2ccccc12 (stereo not drawn) [compound 277] | > 95% |
| COCc1ccccc1C#CCC(C)Nc1ncnc2ccccc12 (stereo not drawn) [compound 278] | > 95% |
| CC(CC#Cc1ccc(C(F)(F)F)cc1Cl)Nc1ncnc2ccccc12 (stereo not drawn) [compound 282] | 80 to 95% |
| CC(CC#Cc1ccc(Cl)cc1C(F)(F)F)Nc1ncnc2ccccc12 (stereo not drawn) [compound 285] | > 95% |
| CC(CC#Cc1ccc(F)cc1C(F)(F)F)Nc1ncnc2ccccc12 (stereo not drawn) [compound 286] | > 95% |
| CC(CC#Cc1ccc(C(F)(F)F)cc1F)Nc1ncnc2ccccc12 (stereo not drawn) [compound 288] | > 95% |
| CC(CC#Cc1ccc(C(C)C)cc1C(F)(F)F)Nc1ncnc2ccccc12 (stereo not drawn) [compound 289] | > 95% |
| CC(CC#Cc1ccccc1S(C)(=O)=O)Nc1ncnc2ccccc12 (stereo not drawn) [compound 290] | 60 to 80% |
| C=CC(CC#Cc1ccccc1)Nc1ncnc2ccccc12 (stereo not drawn) [compound 296] | 60 to 80% |
| C=CC(CC#Cc1ccc(F)cc1)Nc1ncnc2ccccc12 (stereo not drawn) [compound 297] | 80 to 95% |
| COCc1ccccc1C#CCCNc1ncnc2ccc([N+](=O)[O-])cc12 [compound 331] | > 95% |
| COCc1ccccc1C#CCCNc1ncnc2ccc(-c3cccnc3)cc12 [compound 337] | > 95% |
| CC(CC#Cc1ccc(Cl)cc1C(F)(F)F)Nc1ncnc2cc(F)ccc12 (stereo not drawn) [compound 344] | > 95% |
| CC(CC#Cc1ccc(Cl)cc1C(F)(F)F)Nc1ncnc2ccc(F)cc12 (stereo not drawn) [compound 345] | > 95% |
| CC(CC#Cc1ccc(F)cc1C(F)(F)F)Nc1ncnc2cc(F)ccc12 (stereo not drawn) [compound 347] | > 95% |
| CC(CC#Cc1ccc(Cl)cc1C(F)(F)F)Nc1ncnc2c(F)cccc12 (stereo not drawn) [compound 348] | > 95% |
| COc1cccc2c(NC(C)CC#Cc3ccc(Cl)cc3C(F)(F)F)ncnc12 (stereo not drawn) [compound 352] | > 95% |
| COc1cccc2c(NC(C)CC#Cc3ccc(F)cc3C(F)(F)F)ncnc12 (stereo not drawn) [compound 353] | > 95% |
| Fc1cc2ncnc(NCCC#Cc3ccc(Cl)cc3C(F)(F)F)c2cc1F [compound 355] | > 95% |
| Cc1ncnc(NCCC#Cc2ccc(Cl)cc2C(F)(F)F)c1Cl [compound 360] | 60 to 80% |
| CC(CC#Cc1ccc(Cl)cc1C(F)(F)F)Nc1ncnc(C(C)F)c1Cl (stereo not drawn) [compound 382] | > 95% |
| CC(CC#Cc1ccc(Cl)cc1C(F)(F)F)Nc1ncnc2ncccc12 (stereo not drawn) [compound 384] | 80 to 95% |
| Cc1ncnc(NC(C)CC#Cc2ccc(Cl)cc2C(F)(F)F)c1Br (stereo not drawn) [compound 387] | 80 to 95% |
